Some of the results follow.
Each sequence was assayed on T1, Caupolican (Caup) homeodomain DNA-binding domain (assay: PBM E-score (8-mer, recovered from the published 9-mer minima) (E-score (dimensionless, -0.5 to 0.5)); Drosophila protein; higher = stronger relative binding preference, active = 0.31 or more).
T1 sequence: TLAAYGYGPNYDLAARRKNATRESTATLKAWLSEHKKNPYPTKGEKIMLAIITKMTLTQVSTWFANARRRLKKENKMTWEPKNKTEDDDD
Procedure, shortened: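 An enrichment score, with higher meaning stronger, expresses relative binding preference for each short DNA word. The protein used was Caup's homeodomain DNA-binding domain (residues 214-303), produced by in vitro transcription and translation and tested at 100 nM on custom-designed protein binding microarrays. The 8-mer values were recovered from published 9-mer scores, each equal to the lower of its two constituent 8-mer scores.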

Sequence	PBM E-score
AGCGCGGG	inactive: -0.0707
ATCCGACA	inactive: 0.221
CACCACAC	inactive: -0.0395
CGTGACAG	inactive: 0.0683
ACCAGCCC	inactive: -0.0337
ATTAAGAG	inactive: 0.042
AACCGTCC	inactive: -0.158
ACCTTAAC	inactive: 0.0139
AGTTTCGC	inactive: -0.047
GGTGTATA	inactive: 0.133
GATGCCAC	inactive: -0.164
GCGGTGCC	inactive: -0.251
GATGCCTA	inactive: 0.0242
CACTAGTA	inactive: 0.206
GACTTACA	inactive: 0.246
ATCGAGTC	inactive: 0.0704
CTGCTGTC	inactive: -0.0348
AACAGATA	inactive: 0.157
ACCTATAA	inactive: 0.0958
CCCGCTAA	inactive: -0.182
GAGGAAAC	inactive: -0.0465
CAGTGGGG	inactive: -0.234
ACCAGGCC	inactive: -0.0236
TAAATCGA	≥ 0.137
AATACTGG	inactive: 0.0248

Sequence	PBM E-score
CCCAGCAC	inactive: -0.239
GGGTACCC	inactive: -0.274
CAAAGCCA	inactive: -0.0873
CATACATC	inactive: 0.251
CCCGGCCG	inactive: -0.313
GCGTCCTA	inactive: -0.0542
CTGCTAGA	inactive: -0.0792
CAGACCCA	inactive: -0.107
CGTAAAGA	inactive: -0.00051
CGGTTGAC	inactive: 0.00952
AGATTCTG	inactive: -0.0214
CATATCAG	inactive: 0.0708
GATTGCGA	inactive: 0.037
AGACTCCG	inactive: -0.111
ACGCCAGA	≥ -0.0594
CAAGCTAA	inactive: 0.109
ACCCGACA	inactive: 0.095
CCTATATA	inactive: 0.0917
CGATTGAC	inactive: 0.182
ATACGGGA	inactive: -0.00619
AATATTTG	inactive: 0.189
AGCGTCCA	inactive: -0.0936
CTTCCTGA	inactive: -0.0122
CAACTTCG	inactive: -0.064
ATCCACAT	≥ 0.137

Sequence	PBM E-score
AGGGGAGG	inactive: -0.181
AAACAGTG	inactive: 0.131
CGCGGTGC	inactive: -0.195
CCAGGGTC	inactive: -0.221
TACGGCAA	inactive: 0.0403
AGGCTGTC	inactive: -0.00861
CCTGACAA	inactive: 0.218
CGAACGAC	inactive: 0.0606
GATCCGCA	inactive: -0.0981
CCCGCATC	inactive: -0.145
GATAAGTA	≥ 0.158
AGACCTCG	inactive: -0.136
CCCGTCCA	inactive: -0.219
ACCTGTAC	inactive: 0.234
AACCCCAA	inactive: -0.0321
ATTCCAGG	inactive: -0.0214
AAGCGATT	inactive: -0.0271
CCATAGTC	inactive: -0.0479
ACAATGGT	inactive: 0.0851
GAATGGTC	inactive: -0.114
CTTCGGGA	inactive: -0.0578
CCGCGTGA	inactive: -0.123
TCAAGCAA	inactive: 0.0149
AGCCGACG	inactive: -0.14
CATTGCCA	inactive: 0.0634

Sequence	PBM E-score
CCACTCCA	inactive: -0.09
CGAGATCA	inactive: -0.00379
ACGCGGCT	inactive: -0.0981
AGCTACAT	inactive: 0.265
CGAAAATC	inactive: 0.138
TATCGTCA	inactive: 0.142
ACTTCGTG	inactive: 0.0289
CCATTCTA	inactive: 0.0205
AGTACCTG	inactive: 0.106
GACGTAAA	inactive: -0.036
GCCTGCGC	inactive: -0.251
ACACCGGA	inactive: 0.0556
GATAAGAC	inactive: 0.0381
GTAACCAA	inactive: 0.111
ACTTTCAA	inactive: -0.0131
CAGTGAAC	inactive: 0.07
GAAGGGCC	inactive: -0.169
GTCCAATA	inactive: 0.0112
GAGACGCA	inactive: -0.0777
GCTGCGTA	inactive: -0.0415
GCGCGGAA	inactive: -0.172
CAGGTGTA	inactive: 0.225
CAGGTACG	inactive: -0.00719
CGCAATCA	inactive: 0.0581
AAGAAAAT	inactive: 0.0543

Sequence	PBM E-score
CTATAAGC	inactive: -0.00412
GACTACTA	inactive: 0.118
GAGACATC	inactive: 0.0461
CATGCGGG	inactive: -0.13
ATGGCTAC	inactive: 0.107
AGGCGGGA	inactive: -0.0983
CAAGCGTC	inactive: 0.00475
ATAAAGAT	inactive: 0.094
GCCCTACA	inactive: 0.0429
ACTTAGAC	inactive: 0.0462
AGCTTGTA	active: 0.368
GGAGAGAC	inactive: -0.0755
GTGTTAAC	inactive: 0.259
TCGTAGCA	≥ 0.124
CGCCCACC	inactive: -0.126
TATAGTGA	inactive: 0.142
ACTTAAAT	inactive: 0.122
ACTGTAAG	inactive: 0.147
CACGGAAC	inactive: 0.13
CGTATAGA	inactive: 0.114
AGAAAGGC	inactive: -0.165
CGTCCTTC	inactive: -0.0875
TCTAGCAA	inactive: 0.0631
GCATCTAA	inactive: 0.0538
ACTTAGTC	inactive: -0.0129

Sequence	PBM E-score
ATGGGAAC	inactive: 0.0233
CCCTATCG	inactive: -0.116
CCTACCAC	inactive: -0.0428
ATAGCGGG	inactive: -0.163
CATCATAG	inactive: 0.0652
CAGTCGCG	inactive: -0.117
GGACACAA	inactive: 0.204
ATCTTGCG	inactive: 0.00858
ATGCTCAA	inactive: 0.0574
CACGTTTC	inactive: 0.086
ATCACTGG	≥ 0.123
GGATGTCA	active: 0.311
CCGTGAGA	inactive: -0.116
CTCTGCTA	inactive: -0.135
ACGCAGTA	inactive: -0.0674
GTCGTAGA	inactive: 0.0905
AGCCCCCT	inactive: -0.322
CCACGCCA	inactive: -0.134
GCTGGTAC	inactive: 0.0272
ACGCGGAC	inactive: -0.0537
CTTGTAGC	inactive: 0.271
AGCCCACT	inactive: -0.166
CGGCGCGA	inactive: -0.157
CGTGGTGA	inactive: -0.017
CCACACAA	inactive: -0.0312

Sequence	PBM E-score
CATCCAGA	inactive: 0.00179
CGACGCGA	inactive: -0.122
GGCTCAGA	inactive: -0.169
GGCATCCC	inactive: -0.126
ACCGGATG	inactive: -0.0259
AGGATGAT	inactive: 0.0534
GGCACTAA	inactive: -0.0822
ACGGTGCT	inactive: -0.104
CGGCAAGA	inactive: -0.064
CCGGGTCG	inactive: -0.168
GGTGCTGA	inactive: -0.0737
AAAAATAG	inactive: 0.0881
AATGGTAC	inactive: 0.18
ACATCCAC	inactive: 0.188
AGCCGTCC	inactive: -0.218
AAAGTACA	inactive: 0.276
ACTTTGAT	inactive: -0.0427
GAGTGTTA	inactive: 0.192
TCTCGCAA	inactive: -0.0677
GAGGGCTA	inactive: -0.111
TCTGATCA	inactive: 0.0942
GAGCATCA	inactive: -0.0449
CAACCTTC	inactive: 0.0914
AGTAAGCA	≥ 0.105
GCTTTTCC	inactive: -0.089

Sequence	PBM E-score
CTATGCGC	inactive: -0.0646
AGCTCCTA	inactive: -0.0807
CAAAACAG	inactive: 0.15
GGGGACTA	inactive: -0.0613
CTGGTACA	active: 0.319
GAAAGGCC	inactive: -0.285
GGGAACCA	inactive: -0.0705
GCTCTCAA	inactive: -0.138
AGCCAAGC	inactive: -0.107
ATAGCAGA	inactive: 0.0458
AAGCCGCA	inactive: -0.134
ATGGTTTG	inactive: 0.0184
GAAGTCGA	inactive: -0.0227
AACTGTTG	inactive: 0.151
GATTCCCC	inactive: -0.144
CTACAAAA	inactive: 0.123
AATCTTTG	inactive: 0.0886
GCAGCTGA	inactive: -0.0532
AGGTAAAA	inactive: 0.0159
TTGTACAA	active: ≥ 0.44
GCGACAGA	inactive: 0.0849
GAACACCC	inactive: 0.0872
AGCCACCG	inactive: -0.224
CTAGGTCC	inactive: -0.16
GGGTGCCA	inactive: -0.135

Sequence	PBM E-score
TGCTCCCA	≥ -0.0751
AAAACTAT	inactive: 0.132
CAAGACAA	inactive: 0.141
CTAGATAC	inactive: 0.0806
AATCGGAG	inactive: -0.105
ACCTGGAC	inactive: -0.0342
AGTAAAGA	inactive: 0.098
AATTTATC	inactive: 0.198
ACAACGAC	inactive: 0.246
GAGGCCTC	inactive: -0.367
ACGGCTCC	inactive: -0.138
CTCAGGTA	inactive: 0.0731
CAGTAAAC	inactive: 0.0166
ACGTTAGC	inactive: 0.0375
ATGTACTG	active: 0.339
CCTAGGCA	inactive: -0.148
CGAAGTAG	inactive: -0.0332
AAGTCCTG	inactive: -0.00972
TAAGGTGA	inactive: -0.0182
ACGCAGGC	inactive: -0.153
TGTTAAAA	inactive: 0.204
CCTGAAGC	inactive: -0.206
AAAAAGGA	inactive: -0.064
CTTTACGA	inactive: 0.0228
